The GPR68 mutational scans of Howard et al. (2025)
Scores whose standard error is large were omitted. Two further conditions of the source, in which the scores hardly spread, are not listed. In variant names, del marks residues removed and ins residues inserted between the two positions. For some assays here: How much ogerin was present is not stated here.

B1: GPR68, Q15743 (parent)
chain: MGNITADNSSMSCTIDHTIHQTLAPVVYVTVLVVGFPANCLSLYFGYLQIKARNELGVYLCNLTVADLFYICSLPFWLQYVLQHDNWSHGDLSCQVCGILLYENIYISVGFLCCISVDRYLAVAHPFRFHQFRTLKAAVGVSVVIWAKELLTSIYFLMHEEVIEDENQHRVCFEHYPIQAWQRAINYYRFLVGFLFPICLLLASYQGILRAVRRSHGTQKSRKDQIQRLVLSTVVIFLACFLPYHVLLLVRSVWEASCDFAKGVFNAYHFSLLLTSFNCVADPVLYCFVSETTHRDLARLRGACLAFLTCSRTGRAREAYPLGAPEASGKSGAQGEEPELLTKLHPAFQTPNSPGSGGFPTGRLA

What was measured:
[1] = variants of: B1; assay: cAMP reporter score (Enrich2 score, wild type = 0); higher = more signal; HEK293T, FACS bins
[2] = variants of: B1; assay: surface expression score (Enrich2 score, wild type = 0); higher = more signal; HEK293T, FACS bins

MFNITADNSSMSCTIDHTIHQTLAPVVYVTVLVVGFPANCLSLYFGYLQIKARNELGVYLCNLTVADLFYICSLPFWLQYVLQHDNWSHGDLSCQVCGILLYENIYISVGFLCCISVDRYLAVAHPFRFHQFRTLKAAVGVSVVIWAKELLTSIYFLMHEEVIEDENQHRVCFEHYPIQAWQRAINYYRFLVGFLFPICLLLASYQGILRAVRRSHGTQKSRKDQIQRLVLSTVVIFLACFLPYHVLLLVRSVWEASCDFAKGVFNAYHFSLLLTSFNCVADPVLYCFVSETTHRDLARLRGACLAFLTCSRTGRAREAYPLGAPEASGKSGAQGEEPELLTKLHPAFQTPNSPGSGGFPTGRLA [G2F]
cAMP reporter score ([1]; pH 5.5): 0.073
cAMP reporter score ([1]; pH 6): 1.13
cAMP reporter score ([1]; pH 6, modulator: ogerin): 1.08
cAMP reporter score ([1]; pH 6.5, modulator: ogerin): 1.01
surface expression score [2]: 1.09

MHNITADNSSMSCTIDHTIHQTLAPVVYVTVLVVGFPANCLSLYFGYLQIKARNELGVYLCNLTVADLFYICSLPFWLQYVLQHDNWSHGDLSCQVCGILLYENIYISVGFLCCISVDRYLAVAHPFRFHQFRTLKAAVGVSVVIWAKELLTSIYFLMHEEVIEDENQHRVCFEHYPIQAWQRAINYYRFLVGFLFPICLLLASYQGILRAVRRSHGTQKSRKDQIQRLVLSTVVIFLACFLPYHVLLLVRSVWEASCDFAKGVFNAYHFSLLLTSFNCVADPVLYCFVSETTHRDLARLRGACLAFLTCSRTGRAREAYPLGAPEASGKSGAQGEEPELLTKLHPAFQTPNSPGSGGFPTGRLA [G2H]
cAMP reporter score ([1]; pH 5.5): 0.979
cAMP reporter score ([1]; pH 6): 0.159
cAMP reporter score ([1]; pH 6, modulator: ogerin): 1.19
cAMP reporter score ([1]; pH 6.5, modulator: ogerin): 0.72
surface expression score [2]: 1.26

MINITADNSSMSCTIDHTIHQTLAPVVYVTVLVVGFPANCLSLYFGYLQIKARNELGVYLCNLTVADLFYICSLPFWLQYVLQHDNWSHGDLSCQVCGILLYENIYISVGFLCCISVDRYLAVAHPFRFHQFRTLKAAVGVSVVIWAKELLTSIYFLMHEEVIEDENQHRVCFEHYPIQAWQRAINYYRFLVGFLFPICLLLASYQGILRAVRRSHGTQKSRKDQIQRLVLSTVVIFLACFLPYHVLLLVRSVWEASCDFAKGVFNAYHFSLLLTSFNCVADPVLYCFVSETTHRDLARLRGACLAFLTCSRTGRAREAYPLGAPEASGKSGAQGEEPELLTKLHPAFQTPNSPGSGGFPTGRLA [G2I]
cAMP reporter score ([1]; pH 5.5): -0.09
cAMP reporter score ([1]; pH 6): 0.355
cAMP reporter score ([1]; pH 6, modulator: ogerin): -0.051
cAMP reporter score ([1]; pH 6.5, modulator: ogerin): 0.402
surface expression score [2]: -0.31

MKNITADNSSMSCTIDHTIHQTLAPVVYVTVLVVGFPANCLSLYFGYLQIKARNELGVYLCNLTVADLFYICSLPFWLQYVLQHDNWSHGDLSCQVCGILLYENIYISVGFLCCISVDRYLAVAHPFRFHQFRTLKAAVGVSVVIWAKELLTSIYFLMHEEVIEDENQHRVCFEHYPIQAWQRAINYYRFLVGFLFPICLLLASYQGILRAVRRSHGTQKSRKDQIQRLVLSTVVIFLACFLPYHVLLLVRSVWEASCDFAKGVFNAYHFSLLLTSFNCVADPVLYCFVSETTHRDLARLRGACLAFLTCSRTGRAREAYPLGAPEASGKSGAQGEEPELLTKLHPAFQTPNSPGSGGFPTGRLA [G2K]
cAMP reporter score ([1]; pH 5.5): 0.855
cAMP reporter score ([1]; pH 6): 0.611
cAMP reporter score ([1]; pH 6, modulator: ogerin): 0.71
cAMP reporter score ([1]; pH 6.5, modulator: ogerin): 0.854
surface expression score [2]: 0.984
